Our source for the cAMP reporter score and surface expression score values is the GPR68 mutational scans of Howard et al. (2025).

The chains are these.
B1: GPR68, Q15743 (parent)
chain: MGNITADNSSMSCTIDHTIHQTLAPVVYVTVLVVGFPANCLSLYFGYLQIKARNELGVYLCNLTVADLFYICSLPFWLQYVLQHDNWSHGDLSCQVCGILLYENIYISVGFLCCISVDRYLAVAHPFRFHQFRTLKAAVGVSVVIWAKELLTSIYFLMHEEVIEDENQHRVCFEHYPIQAWQRAINYYRFLVGFLFPICLLLASYQGILRAVRRSHGTQKSRKDQIQRLVLSTVVIFLACFLPYHVLLLVRSVWEASCDFAKGVFNAYHFSLLLTSFNCVADPVLYCFVSETTHRDLARLRGACLAFLTCSRTGRAREAYPLGAPEASGKSGAQGEEPELLTKLHPAFQTPNSPGSGGFPTGRLA

The least precise scores are not listed. Two further conditions of the source, in which the scores hardly spread, are not listed. Read del as a deletion of the residues named and ins as an insertion between two positions. For part of these data: The data file names ogerin without a concentration.

The variants in data set [1] derive from B1. The data set is described as follows: cAMP reporter score (Enrich2 score, wild type = 0); higher = more signal; HEK293T, FACS bins.
Variants of B1 are the subject of data set [2]. Description: surface expression score (Enrich2 score, wild type = 0); higher = more signal; HEK293T, FACS bins.

Regarding S221del, the cAMP reporter score in data set [1] (pH 5.5) was found to be 0.237; in data set [1] (pH 6), 0.517; in data set [1] (pH 6.5, modulator: ogerin) it was 1.57. Moreover, in data set [2], the surface expression score was 1.3.
For the variant I236_F237insG, the cAMP reporter score in data set [1] (pH 5.5) was -1.95; in data set [1] (pH 6, modulator: ogerin), -1.2; in data set [1] (pH 6.5, modulator: ogerin) it was -0.633.
For the variant V235_I236insGS, the cAMP reporter score in data set [1] (pH 5.5) is -1.49; in data set [1] (pH 6), -0.78; in data set [1] (pH 6, modulator: ogerin), -1.35; in data set [1] (pH 6.5, modulator: ogerin), -1.12. Besides, in data set [2], the surface expression score was -2.98.
As to R222_D224del, the cAMP reporter score in data set [1] (pH 5.5) is -0.878; in data set [1] (pH 6, modulator: ogerin), -1.42; in data set [1] (pH 6.5, modulator: ogerin) it was -0.77. Besides, in data set [2], the surface expression score came to 0.871.
In the case of S232del, the cAMP reporter score is -1.57 in data set [1] (pH 5.5); -0.237 in data set [1] (pH 6); -1.11 in data set [1] (pH 6, modulator: ogerin); -0.67 in data set [1] (pH 6.5, modulator: ogerin). Moreover, the surface expression score in data set [2] is -2.04.
For the variant L238A, the cAMP reporter score in data set [1] (pH 5.5) was 0.809; in data set [1] (pH 6), -0.755; in data set [1] (pH 6, modulator: ogerin), 1.03; in data set [1] (pH 6.5, modulator: ogerin), 0.617. For the same variant, in data set [2], the surface expression score was -0.007.
As to L238F, the cAMP reporter score is -0.309 in data set [1] (pH 5.5); -0.672 in data set [1] (pH 6); -0.692 in data set [1] (pH 6, modulator: ogerin); -0.653 in data set [1] (pH 6.5, modulator: ogerin). Moreover, the surface expression score in data set [2] was -0.419.
For L238E, the cAMP reporter score in data set [1] (pH 5.5) is -1.41; in data set [1] (pH 6), -0.848; in data set [1] (pH 6, modulator: ogerin), -1.59; in data set [1] (pH 6.5, modulator: ogerin), -1.71. Besides, the surface expression score in data set [2] was -2.44.
For L238D, the cAMP reporter score in data set [1] (pH 5.5) is -1.52; in data set [1] (pH 6, modulator: ogerin), -1.58; in data set [1] (pH 6.5, modulator: ogerin), -0.721. Further, the surface expression score in data set [2] was -2.73.
Take L238C: the cAMP reporter score in data set [1] (pH 5.5) is 0.274; in data set [1] (pH 6, modulator: ogerin) it was -0.472; in data set [1] (pH 6.5, modulator: ogerin), -0.461.
For the variant V234G, the cAMP reporter score in data set [1] (pH 5.5) came out at 0.107; in data set [1] (pH 6), 0.069. Besides, the surface expression score in data set [2] is -0.668.
For the variant V234C, the cAMP reporter score was 1.27 in data set [1] (pH 5.5) and 0.28 in data set [1] (pH 6, modulator: ogerin). For the same variant, the surface expression score in data set [2] is -0.302.
For the variant V234K, the cAMP reporter score in data set [1] (pH 5.5) is -0.945; in data set [1] (pH 6), -1.94; in data set [1] (pH 6.5, modulator: ogerin), -1.59. In data set [2], the surface expression score is -1.16.
As for V234I, the cAMP reporter score worked out at 0.443 in data set [1] (pH 5.5); 0.523 in data set [1] (pH 6); 0.893 in data set [1] (pH 6, modulator: ogerin); 0.031 in data set [1] (pH 6.5, modulator: ogerin). Moreover, in data set [2], the surface expression score was found to be 1.67.
Consider V234S, for which the cAMP reporter score is -0.015 in data set [1] (pH 5.5); -1.48 in data set [1] (pH 6); -0.48 in data set [1] (pH 6, modulator: ogerin). For the same variant, the surface expression score in data set [2] was -1.4.
Regarding V234F, the cAMP reporter score in data set [1] (pH 5.5) is -0.415; in data set [1] (pH 6), -1.66; in data set [1] (pH 6, modulator: ogerin) it was -0.312; in data set [1] (pH 6.5, modulator: ogerin), 0.859. Moreover, the surface expression score in data set [2] is -0.15.
For V234W, the cAMP reporter score in data set [1] (pH 5.5) is 0.299; in data set [1] (pH 6) it was -0.505; in data set [1] (pH 6, modulator: ogerin), 0.09; in data set [1] (pH 6.5, modulator: ogerin), -0.682. The surface expression score in data set [2] is -1.81.
Regarding V234M, the cAMP reporter score in data set [1] (pH 5.5) is -0.167; in data set [1] (pH 6) it was -0.686; in data set [1] (pH 6, modulator: ogerin), -0.514; in data set [1] (pH 6.5, modulator: ogerin), -0.494. Further, the surface expression score in data set [2] is -0.117.
On to V234P, for which the cAMP reporter score in data set [1] (pH 5.5) is -0.639; in data set [1] (pH 6), -1.35; in data set [1] (pH 6, modulator: ogerin), -0.922; in data set [1] (pH 6.5, modulator: ogerin), -0.211. Also, in data set [2], the surface expression score is -1.32.
On to V234E, for which the cAMP reporter score in data set [1] (pH 5.5) is -0.566; in data set [1] (pH 6) it was -1.58; in data set [1] (pH 6, modulator: ogerin), -0.873; in data set [1] (pH 6.5, modulator: ogerin), -1.61. In data set [2], the surface expression score is -2.41.
Turning to V234T, the cAMP reporter score in data set [1] (pH 5.5) is 0.111; in data set [1] (pH 6), 0.799; in data set [1] (pH 6, modulator: ogerin) it was -1.01; in data set [1] (pH 6.5, modulator: ogerin), 0.218. Moreover, the surface expression score in data set [2] is -0.365.
Take V234D: the cAMP reporter score in data set [1] (pH 5.5) was -1.14; in data set [1] (pH 6) it was 1.54; in data set [1] (pH 6, modulator: ogerin), -1.37; in data set [1] (pH 6.5, modulator: ogerin) it was -0.714. Besides, the surface expression score in data set [2] is -2.72.
In the case of V234R, the cAMP reporter score is -1.81 in data set [1] (pH 5.5); -2.29 in data set [1] (pH 6); -1.01 in data set [1] (pH 6, modulator: ogerin); -0.81 in data set [1] (pH 6.5, modulator: ogerin). Besides, in data set [2], the surface expression score was -3.41.
V234N: the cAMP reporter score in data set [1] (pH 5.5) is -0.625; in data set [1] (pH 6), -0.171; in data set [1] (pH 6, modulator: ogerin), -0.822; in data set [1] (pH 6.5, modulator: ogerin) it was 0.122. For the same variant, the surface expression score in data set [2] was -0.596.
In the case of V234Y, the cAMP reporter score is 0.761 in data set [1] (pH 5.5); 1.27 in data set [1] (pH 6); 1.09 in data set [1] (pH 6, modulator: ogerin); -0.068 in data set [1] (pH 6.5, modulator: ogerin). Moreover, in data set [2], the surface expression score is -1.62.
With V234A, the cAMP reporter score in data set [1] (pH 5.5) is -0.015; in data set [1] (pH 6), 0.122; in data set [1] (pH 6, modulator: ogerin), -1.06; in data set [1] (pH 6.5, modulator: ogerin), -1.22. In data set [2], the surface expression score was -0.072.
With V234H, the cAMP reporter score was -1.46 in data set [1] (pH 5.5); -1.72 in data set [1] (pH 6); -0.97 in data set [1] (pH 6, modulator: ogerin); -1.72 in data set [1] (pH 6.5, modulator: ogerin). In data set [2], the surface expression score was -2.21.
For the variant V234Q, the cAMP reporter score in data set [1] (pH 5.5) is 0.853; in data set [1] (pH 6), -1; in data set [1] (pH 6.5, modulator: ogerin), -0.199. Besides, in data set [2], the surface expression score is -1.16.
For D224_Q225insG, the cAMP reporter score was -0.565 in data set [1] (pH 5.5); -0.136 in data set [1] (pH 6); -1.01 in data set [1] (pH 6, modulator: ogerin); -0.509 in data set [1] (pH 6.5, modulator: ogerin). In data set [2], the surface expression score was 0.761.
As to V234del, the cAMP reporter score in data set [1] (pH 5.5) was -1.69; in data set [1] (pH 6, modulator: ogerin), -3; in data set [1] (pH 6.5, modulator: ogerin) it was -1.14. Besides, in data set [2], the surface expression score was -2.69.
In the case of K223del, the cAMP reporter score in data set [1] (pH 5.5) is -0.23; in data set [1] (pH 6), -0.246; in data set [1] (pH 6.5, modulator: ogerin), -0.913. For the same variant, the surface expression score in data set [2] turned out to be 1.43.
With I236_F237insGS, the cAMP reporter score in data set [1] (pH 5.5) is 0.098; in data set [1] (pH 6), -1.23; in data set [1] (pH 6, modulator: ogerin), -1.39; in data set [1] (pH 6.5, modulator: ogerin), -1. For the same variant, the surface expression score in data set [2] is -2.31.
